# Assay results taken from the supplement of paper PMC11417369.
# ± gives the standard deviation of the averaged measurements. Some of the results follow.
# Tested on: PfAP2-LT AP2 domain (GST-tagged)
# Assay: gcPBM binding intensity (ln(normalized median fluorescence intensity)); higher = stronger DNA binding
# Outline: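 An Agilent 4 × 180k array of primer-extended double-stranded 36-bp intergenic genomic probes, with negative controls, was incubated for 1 h with GST-tagged P. falciparum DNA-binding domains expressed in E. coli. Alexa488 anti-GST antibody detected bound protein, scanned at 488 nm. Binding intensity is the highest Masliner-normalised natural-log median intensity across replicate spots of either probe orientation.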
row,Sequence,gcPBM binding intensity (ln)
1,TAAATTTATGGACACACACACATATATATATATATA [CACACA_site4620],9.955 ± 0.021
2,TTATATATAGATCACACACACACACCGGTTTTAAAA [CACACA_site4220],9.75 ± 0.34
3,AAATTTTAATTAGGAACACACATATATATATATATA [CACACA_site5673],9.48 ± 0.3
4,CATAAAAATGGATACACACACATAATATATTTATAT [CACACA_site7669],9.42 ± 0.35
5,ACAATATATTCATATTGTACATAAAATAAGGCTAAC [XGTACX_site6728],8.9 ± 0.4
6,ATTTTTTATGAAAATAAACACACGATTTATTATATA [CACACA_site1312],8.53 ± 0.52
7,TTTTCAGAAAAGAGAAACTTTATTTTTCACAACCGA [TGCATGCA_negctrl_site389],8.3 ± 0.41
8,TAAAAAATTATTAAACGTACGAGACTTTTTATCAGT [XGTACX_site2219],8.57 ± 0.43
9,TGTAGTCATTAGTCAAATTAGAATTAAATATATATT [GTGCAC_negctrl_site643],8.46 ± 0.46
10,TTCATTTATATAATCACACATTTTATCATCTATGTT [CACACA_site4327],8.98 ± 0.47
11,TTAGAAAGAATGTATTGTACATATATATTATATATA [XGTACX_site7045],8.53 ± 0.46
12,TGTATATTTTAGTGATGTACTAATATTATTACTAAT [XGTACX_site3952],8.69 ± 0.4
13,ATATGTTTATTTATTTGTACTTATCATATAATAACA [XGTACX_site5486],8.72 ± 0.43
14,TGCTTAGCACACTATCTACTTCCTTTGTTTCATAAA [GTGCAC_negctrl_site495],8.76 ± 0.41
15,AATATATTTTGATATGAACAATTAATAATTTCAAAT [GTGCAC_negctrl_site170],8.32 ± 0.42
16,ATTCTAATTAGTAAAGTGCAGATAAAATGATGCCCT [GTGCAC_site9578],8.54 ± 0.33
17,TTTTTCACATCTATAAATCATCTAATCAATATTTTT [GTGCAC_negctrl_site444],8.34 ± 0.55
18,GCATGCACGGAAAAAAGTACATATATAAATTTGGTT [XGTACX_site3393],8.96 ± 0.4
19,ATCGTTATATAATGTTGTACTTGTTATATATATATA [XGTACX_site7582],9.13 ± 0.33
20,GGTTCTAAAAAGGGAAGTACATGGAAAAATATAAAT [XGTACX_site4639],8.64 ± 0.64
21,AAAATTATTATGAAAAGTACAAATATGTAAACATAC [XGTACX_site5517],8.79 ± 0.5
22,AAAATTTAGCAAAGGTGTACAAAAGATAATTAGAGT [XGTACX_site3467],9.13 ± 0.61
23,TTTTTTAAATATATTTGTACATATGAAATAAAGATA [XGTACX_site3841],8.21 ± 0.48

row,Sequence,gcPBM binding intensity (ln)
1,ATTAAAATCATATACACACCCATATATATATATATA [CACACA_site5050],9.82 ± 0.28
2,GAATAAATACCGGTGTGTACTTAAATCATTCACGAA [XGTACX_site3174],9.05 ± 0.36
3,ATACATATCTACCTATGTACATAATACAACAAAGAT [XGTACX_site323],9.05 ± 0.38
4,ATTTTATATACAAAATGTACATATTTATTATATATG [XGTACX_site6732],8.72 ± 0.43
5,GCACATATGAATATAATACACACTTGTATTATTAAT [CACACA_site1841],8.98 ± 0.42
6,GGAGCTATCTCCTGCACACACAATTTTTTTTTTTTT [CACACA_site2240],9.12 ± 0.33
7,AAGGATACGCAAAAATGTACAAAATGCTTATAAATA [XGTACX_site984],8.89 ± 0.53
8,TTTTTTTTTAATAAAATTATAATAAATATGAAATTA [XGTACX_negctrl_site369],7.8 ± 0.4
9,ATATATATATATATATGTACACATATATATACTCAC [XGTACX_site8043],9.89 ± 0.15
10,TGAGTATATAAATACACACACATATATATATTTTAA [CACACA_site5130],9.16 ± 0.33
11,TTTTATTTTTAAGGATGTACTCAATTGTTTATATAC [XGTACX_site3965],8.85 ± 0.4
12,AATATCTTAGTGGATACACACATATAAATGGGTATT [CACACA_site4426],8.92 ± 0.3
13,AAAAAATTAAAAAAAAAAAAATCATGAAAAAAACAA [CACACA_negctrl_site1673],8.63 ± 0.6
14,TCATATGTTAAACACACACACACACCGAAAAAAACA [CACACA_site9067],9.84 ± 0.099
15,TTTATTGATAATATATATATATATATATATATATAT [GTGCAC_negctrl_site552],9.15 ± 0.13
16,AGTCTATAGTAATTTACACACAAAAAAATATCAGGA [CACACA_site7620],9.1 ± 0.4
17,AGTAGTCTGGAGAAAAGTACATAGTATCTGGTAGCT [XGTACX_site2027],8.85 ± 0.52
18,CCTAAATAAATGGACACACACATATATATATATATA [CACACA_site1439],9.85 ± 0.29
19,CTTATATTAAGTATTACACACATATATATAAATGCA [CACACA_site4581],8.8 ± 0.42
20,TTTTACGTAATATTTATACACACGAACCTTATTAAT [CACACA_site2300],8.9 ± 0.42
21,TAGAAATAAGAAAAATGTACATATAATATTGAAAGT [XGTACX_site3043],9.06 ± 0.54
22,TATATATATATAAGAAGTACAGAAAATTAGAAAAAA [XGTACX_site8773],8.72 ± 0.48
